Measurements taken from the supplement of paper PMC8728848.
This is one part of the list.

Tests used:
Assay in all cases: glycan array binding signal (z-score within array); higher = stronger binding
Conditions in all cases: glycan notation: IUPAC condensed, linker removed
[1] = biological target: Neu5Ac(a2-6)Gal(b1-4)GlcNAc(b1-2)Man(a1-3)Man(b1-4)GlcNAc(b1-4)GlcNAc
In short: (§1)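 Glycan array binding is given as a within-array Z-score, which can be read as non-binding when negative. The arrays, 3228 of them, came from the Consortium for Functional Glycomics database and were retained only where the protein sequence was available. Z-scores were averaged across arrays of the same protein sequence at different concentrations or buffers and across linkers.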

[2] = biological target: Neu5Ac(a2-6)Gal(b1-4)GlcNAc(b1-2)Man(a1-3)[Gal(b1-4)GlcNAc(b1-2)Man(a1-6)]Man(b1-4)GlcNAc(b1-4)GlcNAc
In short: as §1

[3] = biological target: Neu5Ac(a2-6)Gal(b1-4)GlcNAc(b1-2)Man(a1-3)[GlcNAc(b1-2)Man(a1-6)]Man(b1-4)GlcNAc(b1-4)GlcNAc
In short: as §1

[4] = biological target: Neu5Ac(a2-6)Gal(b1-4)GlcNAc(b1-2)Man(a1-3)[GlcNAc(b1-2)Man(b1-4)GlcNAc(b1-2)Man(a1-6)]Man(b1-4)GlcNAc(b1-4)GlcNAc
In short: as §1

[5] = biological target: Neu5Ac(a2-6)Gal(b1-4)GlcNAc(b1-2)Man(a1-3)[Man(a1-6)]Man(b1-4)GlcNAc(b1-4)GlcNAc
In short: as §1

[6] = biological target: Neu5Ac(a2-6)Gal(b1-4)GlcNAc(b1-2)Man(a1-3)[Neu5Ac(a2-6)Gal(b1-4)GlcNAc(b1-2)Man(a1-6)]Man(b1-4)GlcNAc(b1-4)GlcNAc
In short: as §1

[7] = biological target: Neu5Ac(a2-6)Gal(b1-4)GlcNAc(b1-2)Man(a1-6)Man(b1-4)GlcNAc(b1-4)GlcNAc
In short: as §1

[8] = biological target: Neu5Ac(a2-6)Gal(b1-4)GlcNAc(b1-2)Man(a1-6)[Gal(b1-4)GlcNAc(b1-2)Man(a1-3)]Man(b1-4)GlcNAc(b1-4)GlcNAc
In short: as §1

[9] = biological target: Neu5Ac(a2-6)Gal(b1-4)GlcNAc(b1-2)Man(a1-6)[GlcNAc(b1-2)Man(a1-3)]Man(b1-4)GlcNAc(b1-4)GlcNAc
In short: as §1

[10] = biological target: Neu5Ac(a2-6)Gal(b1-4)GlcNAc(b1-2)Man(a1-6)[Man(a1-3)]Man(b1-4)GlcNAc(b1-4)GlcNAc
In short: as §1

[11] = biological target: Neu5Ac(a2-6)Gal(b1-4)GlcNAc(b1-3)Gal(b1-3)GlcNAc
In short: as §1

[12] = biological target: Neu5Ac(a2-6)Gal(b1-4)GlcNAc(b1-3)Gal(b1-4)GlcNAc
In short: as §1

[13] = biological target: Neu5Ac(a2-6)Gal(b1-4)GlcNAc(b1-3)Gal(b1-4)GlcNAc(b1-3)Gal(b1-4)GlcNAc
In short: as §1

[14] = biological target: Neu5Ac(a2-6)Gal(b1-4)GlcNAc(b1-3)Gal(b1-4)[Fuc(a1-3)]GlcNAc(b1-3)Gal(b1-4)[Fuc(a1-3)]GlcNAc
In short: as §1

[15] = biological target: Neu5Ac(a2-6)Gal(b1-4)GlcNAc(b1-3)GalNAc
In short: as §1

[16] = biological target: Neu5Ac(a2-6)Gal(b1-4)GlcNAc6S
In short: as §1

Neu5Ac(a2-6)GalNAc = biological target: Neu5Ac(a2-6)GalNAc
In short: as §1

[17] = biological target: Neu5Ac(a2-6)GalNAc(b1-4)GlcNAc
In short: as §1

[18] = biological target: Neu5Ac(a2-6)GlcNAc(b1-4)GlcNAc
In short: as §1

[19] = biological target: Neu5Ac(a2-6)GlcNAc(b1-4)GlcNAc(b1-4)GlcNAc
In short: as §1

Neu5Ac(a2-8)Neu5Ac = biological target: Neu5Ac(a2-8)Neu5Ac
In short: as §1

[20] = biological target: Neu5Ac(a2-8)Neu5Ac(a2-3)Gal(b1-4)Glc
In short: as §1

[21] = biological target: Neu5Ac(a2-8)Neu5Ac(a2-3)[GalNAc(b1-4)]Gal(b1-4)Glc
In short: as §1

[22] = biological target: Neu5Ac(a2-8)Neu5Ac(a2-8)Neu5Ac
In short: as §1

[23] = biological target: Neu5Ac(a2-8)Neu5Ac(a2-8)Neu5Ac(a2-3)Gal(b1-4)Glc
In short: as §1

[24] = biological target: Neu5Ac(a2-8)Neu5Ac(a2-8)Neu5Ac(a2-3)[GalNAc(b1-4)]Gal(b1-4)Glc
In short: as §1

[25] = biological target: Neu5Ac(a2-8)Neu5Ac(a2-8)Neu5Ac(a2-8)Neu5Ac(a2-3)[GalNAc(b1-4)]Gal(b1-4)Glc
In short: as §1

[26] = biological target: Neu5Ac(b2-6)Gal(b1-4)GlcNAc
In short: as §1

Neu5Ac(b2-6)GalNAc = biological target: Neu5Ac(b2-6)GalNAc
In short: as §1

[27] = biological target: Neu5Ac9Ac(a2-3)Gal(b1-3)GlcNAc
In short: as §1

[28] = biological target: Neu5Ac9Ac(a2-3)Gal(b1-4)GlcNAc
In short: as §1

[29] = biological target: Neu5Ac9Ac(a2-6)Gal(b1-4)GlcNAc
In short: as §1

[30] = biological target: Neu5Gc(a2-3)Gal(b1-3)GlcNAc
In short: as §1

[31] = biological target: Neu5Gc(a2-3)Gal(b1-3)[Fuc(a1-4)]GlcNAc
In short: as §1

Neu5Gc(a2-3)Gal(b1-4)Glc = biological target: Neu5Gc(a2-3)Gal(b1-4)Glc
In short: as §1

[32] = biological target: Neu5Gc(a2-3)Gal(b1-4)GlcNAc
In short: as §1

[33] = biological target: Neu5Gc(a2-3)Gal(b1-4)[Fuc(a1-3)]GlcNAc
In short: as §1

[34] = biological target: Neu5Gc(a2-6)Gal(b1-4)GlcNAc
In short: as §1

Neu5Gc(a2-6)GalNAc = biological target: Neu5Gc(a2-6)GalNAc
In short: as §1

[35] = biological target: Neu5Gc(b2-6)Gal(b1-4)GlcNAc
In short: as §1

B1: Pp2-A2 (Arabidopsis thaliana), Q07098 (protein)
chain: MPSNGDLDRQIEQLMECKPLSEADVRTLCDQARAILVEEYNVQPVKCPVTVCGDIHGQFYDLIELFRIGGNAPDTNYLFMGDYVDRGYYSVETVSLLVALKVRYRDRLTILRGNHESRQITQVYGFYDECLRKYGNANVWKYFTDLFDYLPLTALIESQVFCLHGGLSPSLDTLDNIRSLDRIQEVPHEGPMCDLLWSDPDDRCGWGISPRGAGYTFGQDIAAQFNHNNGLSLISRAHQLVMEGFNWCQDKNVVTVFSAPNYCYRCGNMAAILEIGENMEQNFLQFDPAPRQVEPDTTRKTPDYFL
glycan array binding signal (z-score) [1]: -0.603
glycan array binding signal (z-score) [2]: -0.447
glycan array binding signal (z-score) [3]: -0.55
glycan array binding signal (z-score) [4]: -0.553
glycan array binding signal (z-score) [5]: -0.41
glycan array binding signal (z-score) [6]: -0.571
glycan array binding signal (z-score) [7]: -0.465
glycan array binding signal (z-score) [8]: -0.588
glycan array binding signal (z-score) [9]: -0.642
glycan array binding signal (z-score) [10]: -0.69
glycan array binding signal (z-score) [11]: 0.016
glycan array binding signal (z-score) [12]: -0.011
glycan array binding signal (z-score) [13]: -0.081
glycan array binding signal (z-score) [14]: 0.021
glycan array binding signal (z-score) [15]: 0.4
glycan array binding signal (z-score) [16]: 1.03
glycan array binding signal (z-score) (Neu5Ac(a2-6)GalNAc): -0.052
glycan array binding signal (z-score) [17]: -0.57
glycan array binding signal (z-score) [18]: -0.475
glycan array binding signal (z-score) [19]: -0.102
glycan array binding signal (z-score) (Neu5Ac(a2-8)Neu5Ac): 0.344
glycan array binding signal (z-score) [20]: -0.442
glycan array binding signal (z-score) [21]: -0.197
glycan array binding signal (z-score) [22]: -0.23
glycan array binding signal (z-score) [23]: -0.234
glycan array binding signal (z-score) [24]: 0.265
glycan array binding signal (z-score) [25]: -0.215
glycan array binding signal (z-score) [26]: 0.004
glycan array binding signal (z-score) (Neu5Ac(b2-6)GalNAc): 0.465
glycan array binding signal (z-score) [27]: -0.272
glycan array binding signal (z-score) [28]: -0.605
glycan array binding signal (z-score) [29]: -0.859
glycan array binding signal (z-score) [30]: -0.253
glycan array binding signal (z-score) [31]: -0.001
glycan array binding signal (z-score) (Neu5Gc(a2-3)Gal(b1-4)Glc): -0.148
glycan array binding signal (z-score) [32]: -0.053
glycan array binding signal (z-score) [33]: 0.068
glycan array binding signal (z-score) [34]: -0.534
glycan array binding signal (z-score) (Neu5Gc(a2-6)GalNAc): -0.235
glycan array binding signal (z-score) [35]: 0.017
